Laboratory results: PubChem BioAssay AID485281 (National Center for Advancing Translational Sciences (NCATS), 2010)
Screen size: about 350,000 compounds; about 260 (0.074%) were called active. Calls follow the shape of the dose curve; as a rule, active = well fitted inhibition curve with a large enough effect; inconclusive = small, poorly fitted or top-dose-only effect; inactive = no such curve, though single readings can be large or run the other way. Inconclusive results, whose numbers are uncertain, are shown. A potency beside an inconclusive call is a rough fit, not a confirmed value.

molecular target: Ferritin light chain (Equus caballus) (UniProt P02791); assay: qHTS Assay for Identification of Novel General Anesthetics; settings: apoferritin/1-aminoanthracene competitive binding, fluorescence; series mostly up to 77.5 µM; also: nearly all actives have a fitted effect of over 20% in size
From the text: Source: NIH Chemical Genomics Center [NCGC]
Assay Submitter: Roderic Eckenhoff, University of Pennsylvania
Screening Center PI: Christopher P. Austin, NIH
Probe Development: NIH Chemical Genomics Center [NCGC]
Anesthetic development has remained a largely empirical process. There are growing concerns about the cognitive effects of known general anesthetics and acceleration of the onset of neurodegenerative disease. The compounds' toxicity and multiple specific binding targets in the mammalian brain [4] has made them less attractive as drug leads. In this assay, a GABAergic mimetic model system, apoferritin and a profluorescent 1-aminoanthracene ligand (1-AMA), was used to construct a competitive binding assay for identification of novel general anesthetics. […]
in PBS) in columns 3, 4 as negative control and 1-AMA/apoferritin mixture (10 uM horse-spleen apoferritin in 50% saturated 1-aminoanthracene in PBS) in columns 1, 2, 5-48) was dispensed into 1536-well Greiner black assay plates. […] The plates were incubated for 10 min at room temperature, and then read on an EnVision HTS multilabel reader (Perkin-Elmer, Waltham, MA) (end point read, 3 min/plate) using Fura2 BFP excitation filter (380 nm, bandwidth 10 nm) and fluorescein emission filter (535 nm, bandwidth 25 nm) set. […] Activity was computed as the normalized fluorescence response relative to free 1-AMA and 1-AMA/apoferritin complex values. […]
Potency is read from the fitted curve at half-maximal effect; tags tell the direction and shape of the fitted curve.

Chain of UniProt P02791 (P02791 whole entry, looked up): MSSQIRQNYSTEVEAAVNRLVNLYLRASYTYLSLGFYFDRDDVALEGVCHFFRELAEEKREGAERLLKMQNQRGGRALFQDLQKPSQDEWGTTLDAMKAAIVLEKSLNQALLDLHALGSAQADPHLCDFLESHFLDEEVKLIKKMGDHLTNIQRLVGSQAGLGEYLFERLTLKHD

Row | SMILES | Potency
1 | O=C(Nc1ccc(C(=O)O)cc1)/C(=C\C=C\c1ccccc1)NC(=O)c1cccc(Br)c1 | inconclusive: 28.2 µM [inhibitor, partial curve]
2 | CCCCCCc1c(C)c2ccc(OCC(=O)N[C@@H](Cc3ccccc3)C(=O)O)cc2oc1=O | inconclusive: 25.1 µM [inhibitor, partial curve]
